About 2,200 (0.71%) of roughly 310,000 compounds showed an effect of 50% or more. Effects have a minus sign here. This is one part of the list.
These molecules were tested against human ether-à-go-go-related gene (hERG) potassium channel (human, UniProt Q12809) (assay: primary screen, population patch clamp on CHO cells stably expressing hERG).
Sequence of human ether-à-go-go-related gene (hERG) potassium channel (Q12809 whole entry, looked up): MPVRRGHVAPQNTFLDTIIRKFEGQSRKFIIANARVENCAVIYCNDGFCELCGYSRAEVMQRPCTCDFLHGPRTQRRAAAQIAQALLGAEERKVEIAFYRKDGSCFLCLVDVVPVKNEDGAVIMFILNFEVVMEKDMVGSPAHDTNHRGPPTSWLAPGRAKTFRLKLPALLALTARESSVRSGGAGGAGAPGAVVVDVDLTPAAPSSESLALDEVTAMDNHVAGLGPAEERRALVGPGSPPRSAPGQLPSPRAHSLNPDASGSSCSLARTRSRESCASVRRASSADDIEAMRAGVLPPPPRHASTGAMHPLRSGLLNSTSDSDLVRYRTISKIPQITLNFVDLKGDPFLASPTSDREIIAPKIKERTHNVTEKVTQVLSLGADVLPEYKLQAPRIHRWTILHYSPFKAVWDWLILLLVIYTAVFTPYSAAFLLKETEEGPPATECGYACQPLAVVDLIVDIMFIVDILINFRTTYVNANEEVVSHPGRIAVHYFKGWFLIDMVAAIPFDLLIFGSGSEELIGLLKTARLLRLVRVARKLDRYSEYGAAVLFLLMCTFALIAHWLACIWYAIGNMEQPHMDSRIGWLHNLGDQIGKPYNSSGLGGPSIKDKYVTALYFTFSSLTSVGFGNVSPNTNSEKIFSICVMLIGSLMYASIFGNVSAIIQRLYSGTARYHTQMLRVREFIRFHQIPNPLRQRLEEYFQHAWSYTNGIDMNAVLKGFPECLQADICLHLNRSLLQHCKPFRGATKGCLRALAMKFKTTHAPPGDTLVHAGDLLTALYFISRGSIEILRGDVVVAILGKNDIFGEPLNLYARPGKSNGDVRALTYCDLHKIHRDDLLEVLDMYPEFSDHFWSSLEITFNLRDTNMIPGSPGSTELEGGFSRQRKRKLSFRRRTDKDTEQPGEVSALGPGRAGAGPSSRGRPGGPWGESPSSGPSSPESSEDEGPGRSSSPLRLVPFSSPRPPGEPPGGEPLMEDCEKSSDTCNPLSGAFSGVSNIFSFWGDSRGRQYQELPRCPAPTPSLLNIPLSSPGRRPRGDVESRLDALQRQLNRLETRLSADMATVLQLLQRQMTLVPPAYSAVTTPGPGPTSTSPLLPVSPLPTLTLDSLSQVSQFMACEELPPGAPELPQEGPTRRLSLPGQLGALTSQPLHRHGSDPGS

SMILES	hERG current change (%, negative = inhibition) at 1uM [%]
CC1CCCN(C(=O)COc2ccc(-c3ccccc3)cc2)C1 (centres unmarked)	3.78
Nn1c(SCCOc2ccccc2)nnc1-c1cccnc1	12.6
COc1ccc(C(=O)Nn2cnnc2)cc1OC	12.5
COc1ccc(S(=O)(=O)N2CCCCC2)cc1NC(=O)CCc1nc2ccccc2c(=O)[nH]1	5.73
COC(=O)/C=C/c1ccc2c(c1)S(=O)(=O)N(Cc1ccc(OC)cc1)[C@H]2CC(=O)OC	-16.2
CCOc1cc(/C=C2/NC(=S)NC2=O)ccc1OCc1ccc([N+](=O)[O-])cc1	9.83
CCC(=O)N1c2ccccc2C(N(C(C)=O)c2ccccc2)CC1C (centres unmarked)	8
CCOC(=O)C1=CC(=C2C(=O)N(CC)C(=S)N(CC)C2=O)c2ccccc2O1	14.6
COCCNC(=O)CN(C(=O)CCC(=O)Nc1cc(C)on1)c1ccccc1C	9.19
O=C(CSc1n[nH]c(=O)[nH]c1=O)c1ccc([N+](=O)[O-])cc1	3.43
O=C(CCc1ccccn1)N1CCCC(Nc2cccc(F)c2)C1 (centres unmarked)	7.11
CC(C)(O)C#Cc1ccc(C(=O)NCc2ccccc2)s1	-2.9
CC1(C)Cc2nc(Cl)c(C(=O)O)cc2CO1	19.3
CCC(C)C(=O)Nc1nnc(SCC(=O)Nc2ccc(F)cc2)s1 (centres unmarked)	15.2
CC1=C(C(=O)N2CCOCC2)C(c2ccccc2F)NC(=O)N1 (centres unmarked)	10.3
Cc1ccc(S(=O)(=O)N(CC(=O)N2CCOCC2)c2ccc(Br)cc2)cc1	1.29
O=C(NCCC1=CCCCC1)c1ccc(Cl)cc1	9.37
COc1ccc(C(F)(F)F)cc1N/C=C\c1nnnn1-c1ccccc1	14.5
Cc1ccc(N2CC(C(=O)Nc3ccc(S(=O)(=O)N4CCCC4)cc3)CC2=O)cc1 (centres unmarked)	-1.52
COc1ccc2c(c1)N(C)/C(=C1/SC(=NCc3ccccc3)N(c3ccccc3)C1=O)S2	13.4
NS(=O)(=O)c1ccc(NC(=O)Cn2nc(C(=O)O)c3ccccc3c2=O)cc1	19.2
CC1(C)COC(c2cccn2Cc2ccccc2Cl)=N1	5.92

SMILES	hERG current change (%, negative = inhibition) at 1uM [%]
O=C(CCS(=O)(=O)Cc1ccccc1)NC1CCCCC1	-1.57
COC(=O)C1=C(c2ccc(F)cc2F)C[C@@H]2CC[C@H]1N2C(=O)N1CCC(O)(c2ccc(Cl)cc2)CC1	15.2
COC(=O)CN1C(=O)[C@H]2[C@@H](c3ccc(C)o3)N3C(=O)CN(Cc4ccc(-c5ccccc5)cc4)C(=O)[C@@]3(C)[C@H]2C1=O	0.0123
CC(C)=CCC12CN3CCN(CC(C3)C1=O)C2	3.95
CCN(CC)c1ccc(C(=O)NNC(=O)CCc2nc3ccccc3c(=O)[nH]2)cc1	9.53
COc1cc(NC(=O)c2ccccc2)ccc1NC(=O)c1cc2ccccc2o1	9.27
O=c1cccc2n1CC1CC2CN(c2ncnc3c2cnn3-c2ccccc2)C1 (centres unmarked)	-7.14
CCOc1ccc2[nH]cc(C(=O)N3CCN(CC)CC3)c(=O)c2c1	-5.48
CNC(=O)CN(c1cc(C)ccc1C)S(C)(=O)=O	2.83
O=C(COc1ccc(Br)cc1)N/N=C1\SCC(=O)N1c1ccc(F)cc1	3.05
Cc1cccc(-n2ncc3c2CCCC3NC(=O)CCN2CCCO2)c1C (centres unmarked)	16.2
CCN(CC)CCn1c2ccccc2c2nc(C)sc21	-11.8
Fc1ccccc1CNc1ccc(Cl)c(Cl)c1	11.7
CNS(=O)(=O)c1ccc(NC(=O)C2c3ccccc3Oc3ccccc32)cc1	5.58
COc1ccc(NC(=O)NCc2ccc3c(c2)OCO3)cc1OC	8.27
N#C/C(=C\c1ccc(O)c(O)c1)S(=O)(=O)c1ccccc1	7.28
COc1ccccc1C(=O)N(Cc1sccc1C)C1CCS(=O)(=O)C1 (centres unmarked)	21.6
Cn1c(SCC(=O)Nc2ccc3c(c2)OCO3)nnc1-c1cnccn1	4.37
COc1cc2cc(C)c(SCC(=O)N3CCN(C(=O)c4ccco4)CC3)nc2cc1OC	-30.1
CCc1ccccc1-n1nnnc1SCC(=O)Nc1cc(C)on1	11.5
Cc1nc(C)c(C(=O)OCC(=O)Nc2ccccc2SCC#N)s1	3.08
COc1cc(NC(=O)CSc2nc3[nH]ncc3c(=O)n2-c2ccccc2C)cc(OC)c1OC	15.7

SMILES	hERG current change (%, negative = inhibition) at 1uM [%]
COc1ccc(CCNc2c([N+](=O)[O-])c(=O)oc3ccccc23)cc1OC	0.298
Cc1ccc(C(=O)CCC(=O)OCC(=O)Nc2ccc3[nH]c(=O)[nH]c3c2)cc1	18.3
O=C(CC(c1ccccc1)c1cc(Br)ccc1O)N1CCCC1 (centres unmarked)	-6.76
O=C(Nc1nnc(-c2ccco2)o1)c1ccc(Cl)cc1	-13.6
COc1ccc(NC(=O)CCCCCN2C(=O)CCC2=O)cc1Cl	4.52
N#CCc1ccc(OC(=O)c2cnccc2C(F)(F)F)cc1	17.4
COc1ccccc1N1CC(C(=O)OCC(=O)c2ccc(F)cc2)CC1=O (centres unmarked)	16.2
Cc1ccc(NS(=O)(=O)c2c(C)[nH]c(=O)[nH]c2=O)c(C)c1	20
CCn1c(C)nnc1SCC(=O)NC1CCCCCC1	6.57
CCCOc1cccc(C2C(C(=O)c3ccco3)=C(O)C(=O)N2c2nnc(C)s2)c1 (centres unmarked)	8.62
CC12CC(NC(=O)N1c1cccc(C(=O)NCc3ccccn3)c1)c1ccccc1O2 (centres unmarked)	12.5
Cc1sc(NC(=O)CS(=O)(=O)c2ccccc2)c(C(N)=O)c1C	-2.73
COC(=O)CCc1c(C)c(C(=O)c2ccc(F)cc2)c2ccccn12	14.1
CCSc1nnc(Cc2cc(=O)[nH]c(=O)[nH]2)n1-c1ccc(F)cc1	10.1
O=C(NCc1ccccc1)c1cc(-c2ccncc2)nc2ccc(S(=O)(=O)N3CCOCC3)cc12	8.83
O=C(N=C1SC2CS(=O)(=O)CC2N1c1ccccc1C(F)(F)F)C1CCCO1 (centres unmarked)	13.4
Cc1cccnc1NC(=O)CN1C(=O)NC(C)(c2ccc3ccccc3c2)C1=O (centres unmarked)	0.186
Cc1onc(-c2ccccc2)c1C(=O)Nc1nnc(C(C)C)s1	-1.64
O=C(c1cn(-c2ccccc2)nc1-c1cccs1)N1CCN(c2ccc(F)cc2)CC1	8.44
CCN(C(=O)CSc1ncn[nH]1)C1CCCCC1	7.97
CCOC(=O)CCP(=O)(O)C(C)(O)c1ccccc1 (centres unmarked)	12
Cn1c(CO)cnc1SCC(=O)c1ccc(Br)cc1	20.3

SMILES	hERG current change (%, negative = inhibition) at 1uM [%]
O=C1c2cc(CO)cc(O)c2C(=O)c2c(O[C@@H]3OC(CO)[C@@H](O)[C@@H](O)[C@@H]3O)cccc21 (some centres unmarked)	15.9
O=S(=O)(NCc1cn2ccsc2n1)c1ccc(Oc2ccccc2)cc1	0.948
Cc1ncc([N+](=O)[O-])n1CCOC(=O)NC(NCc1ccccc1Cl)C(Cl)(Cl)Cl (centres unmarked)	2.59
COc1ccc(CCN2CN(S(=O)(=O)c3ccccc3)c3nc4ccccc4nc32)cc1OC	7.48
Cc1cc(O)c(C(C)C)cc1NS(=O)(=O)c1ccccc1	10.4
COc1ccc(C(CNC(=O)C(CCSC)NC(=O)c2ccccc2Cl)N2CCOCC2)cc1 (centres unmarked)	8.28
CCOc1ccc(NS(=O)(=O)c2ccc(C(=O)N(C)CC(=O)Nc3ccc(C)cc3)cc2)cc1	15.5
Cc1cc(C)nc(NS(=O)(=O)c2ccc(NC(=O)c3ccc(N4C(=O)CCC4=O)cc3)cc2)n1	10.9
CCOc1ccc(-c2csc(NC(=O)c3ccco3)n2)cc1	8.42
CC(=O)Nc1ccc(C(=O)OCC(=O)Nc2ccc(Cl)cc2C(=O)c2ccccc2)cc1	1.4
COc1ccc(NC(=O)C2(c3ccc(NC(=O)c4ccc(OC)cc4)cc3)CCCC2)cc1	-12.1
COc1ccc(S(=O)(=O)N2CCOCC2)cc1C(=O)N1CCCC1	15.7
O=C(O)c1cccc(Nc2nc(N3CCOCC3)nc(N3CCOCC3)n2)c1	9.41
O=C(O)CN1C(=O)S/C(=C\c2cccnc2)C1=O	12.8
Cc1c(C(N)=O)sc2ncn(CC(=O)NCCc3ccccc3)c(=O)c12	0.398
Cc1ccccc1CNC(=O)CC1C(=O)NCCN1CC1CCCCC1 (centres unmarked)	13.5
NC(=O)c1ccc(Oc2cccc3cccnc23)c([N+](=O)[O-])c1	-7.15
CCOC(=O)c1[nH]c2ccccc2c1N=C(C)N(CC)CC	-29.6
COc1ccccc1N1CC(C(=O)OCC(=O)Nc2c(C)cccc2C)CC1=O (centres unmarked)	6.41
O=C(Nc1ccc(-n2cc(Br)cn2)cc1)c1ccncc1	18

Reference: article PMC4336329 (PLoS ONE, 2015)
